In patent publication US20040197268A1, “Method of imaging amyloid deposits using substituted rhodanine derivatives” (priority 1999, published 2004):
Certain results were filed several times, with different values. This is not the full list of results. The source may hold further records. The values listed for one entry appear to be repeats (runs, samples, wells or individuals).

Target: T1, Aβ(1-40) (Homo sapiens, UniProt P05067)
T1 construct: Soluble Aβ(1-40) peptide (Bachem, Torrance, Calif.); purchased Bachem, Torrance, Calif
Assay: BASST (Beta-Amyloid Self-Seeding, ThioflavinT), inhibitors of self-seeded amyloid fibril growth
Format: biochemical
Conditions: 30 μM soluble Aβ(1-40), pH 7.5, 37° C., 3 to 5 hours, thioflavin T fluorescence
Experimental: BASST (Beta-Amyloid Self-Seeding, ThioflavinT)
An assay for inhibitors of self-seeded amyloid fibril growth
Assay Buffer—50 mM sodium phosphate, pH 7.5, 100 mM NaCl, 0.02% NaN3, 1 M urea (filter and store at 4° C.).
Soluble Aβ(1-40)—2.2 mg/mL in deionized H2O (store in aliquots at −20° C., keep on ice when thawed) will self-seed after 1 week storage. Typically, the solution should be stored until no lag phase is seen in the assay.
Final assay conditions: 30 μM soluble Aβ(1-40) in deionized water in assay buffer. Compound to be tested is dissolved in DMSO, typically 5-50 mM stock, such that the final concentration of DMSO is <1% v/v in the assay.
Assay: Reaction mixture for 50 assays (on ice) comprised of 1 μL of soluble Aβ(1-40)+13.5 μL assay buffer per assay. The following are the amounts of the components of the reaction mixture that result in each of the 50 assay wells.
1) Prepare the reaction mix above by mixing the components and storing on ice.
2) Pipet […] of reaction mixture into each of 50 wells of a polystyrene U-bottom 96-well microtiter plate (Corning 25881-96) on ice. […]
6) Remove the aluminum film and add 250 μL/well of 5 μM thioflavin T (ThT) [T-3516, Sigma-Aldrich] in 50 mM glycine-NaOH, pH 8.5. Read fluorescence on a plate reader (ex=440 nm/20 nm; em=485 nm/20 nm) within 5 minutes.

T1 sequence (P05067 672-711 limits assumed): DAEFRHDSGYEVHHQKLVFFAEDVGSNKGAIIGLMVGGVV

## CCCCN(CCCC)c1ccc(/C=C2\SC(=S)N(CCS(=O)(=O)NC(=O)c3ccc(F)cc3)C2=O)cc1 [Example 26, (Z) 2-[5-(4-Dibutylamino-benzytidene)-4-oxo-2-thioxo-thiazolidin-3-yl]-ethanesulfonic acid 4-fluoro-benzoylamide]
  IC50: 500 nM and 10 µM [one cell]
